From the RNAGym collection of RNA variant scans (doi:10.1073/pnas.2313332121)
Variants at the floor of the assay are shown more often than the library holds them.

B1: TPR 5TU (parent)
chain: GGAUCUUCUCGAUCUAACAAAAAAGACAAAUCUGCCACAAAGCUUGAGAGCAUCUUCGGAUGCAGAGGCGGCAGCCUUCGGUGGCGCGAUAGCGCCAACGUUCUCAACUAUGACACGCAAAACGCGUGCUCCGUUGAAUGGAGUUUAUCAUG

Variants of: B1
Assay: polymerase ribozyme fitness, log enrichment relative to wild type (log ratio); higher = more active; in vitro selection for triplet polymerase activity
Summary of the method: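 Fitness is a logarithmic measure of how a genotype enriched relative to the wild type, with replicate averages weighted by inverse variance. The logarithm uses base 2, and enrichment came from Illumina sequencing of input and output libraries. Those libraries were PCR-built, transcribed mutants of each subunit of a heterodimeric triplet polymerase ribozyme, passed through one triplicate in vitro selection round that included frozen incubation at −7 °C, gel excision of extended constructs and streptavidin-bead capture. Genotypes were kept only if they had ≥10 input reads and ≥1 read per output.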

Variant | polymerase ribozyme fitness (log ratio)
U13A G94A U102G | ≤ -4.2
U13A A22C A23U A52G C116U A120C | ≤ -4.2
A12U U13G A49C A106G | ≤ -4.2
A12U C14U A37U A47C G92A C105A | ≤ -4.2
A12U G83A U90C | ≤ -4.2
A12U G46A C75U C87A C99U G117A | ≤ -4.2
A12U A24U G92A C103G A106C U139A | ≤ -4.2
A12G C54U U61A C72A C96U A98U C99A A142C | ≤ -4.2
A12U A40C C54U A60C A64G C85G C87A C96U C103A G136U | ≤ -4.2
A12U A28G U31A U33A A64U G68A A150G | ≤ -4.2
A12U C87A C103G U135G | ≤ -4.2
A12G G74C | -3.9
U13C A19C A20U A30G G67A C85A G88U C129G U139G U151A | ≤ -4.2
A12G G83U G92U A142G | -2.93
U13A C35U U53A G84C C99G G133C | ≤ -4.2
U13A U135A | -0.229
A12U C35A C79U C96A A110G C118U C125A | ≤ -4.2
A12G C63A C69G U90A C103A | ≤ -4.2
U13C U33A C54A C95G A98C C99A A150G | ≤ -4.2
A12U C14G C32U C36G C63U G65A G86A C103G A106C | ≤ -4.2
A12U U82C G86C | ≤ -4.2
U13A A21U G46U G48C C54U C79U G92A G100U C103G G133A U151G | ≤ -4.2
A12U A16C A23G G46U A73U G80A C103G | ≤ -4.2
U13C G94A | -0.431

Variant | polymerase ribozyme fitness (log ratio)
U13C C18A G48C U53A G86U C87A G100U U146A | ≤ -4.2
U13A C43A C95U | ≤ -4.2
U13C C36A C85U U104G G141C A150U | ≤ -4.2
A12U A26C C36U | -3.95
A12U A40G A41C C57A G133U A150C | ≤ -4.2
A12U A40U C85U U145C | -1.21
U13A G34U A49C G140A A142U | ≤ -4.2
U13A C14A A60G C93U | -2.5
U13A G34U G94A U102G | ≤ -4.2
A12G C35U U56C C57G G58U A60G | -0.194
A12U U56A | -0.683
U13A U55G C85U A121G | -1.11
A12U C85U A97G C116U | -1.53
U13A G42A C72U C79G A142C | ≤ -4.2
A12U A21G C75A C95U A138U G143U | ≤ -4.2
A12U U56C G83C C85G C87A C108U U111G A150G | ≤ -4.2
A12G U31G C51A C57A C79A G92U C93U C105U U134C | ≤ -4.2
A12U G34C G58C U61A G80C G92A | ≤ -4.2
A12U A22U U56A G74A U104A C131G U144G C149U | ≤ -4.2
A12U C35G C87A G141A | ≤ -4.2
A12U G84C | -2.67
U13C G25A A60U C87U G92A G140A U151A | ≤ -4.2
A12G C76A C114U G141U | ≤ -4.2
U13A C27A C54A U56A G65C G92C A97G U101G G140U | ≤ -4.2

Variant | polymerase ribozyme fitness (log ratio)
A12G C54A A60C G74A C96U G124A | ≤ -4.2
U13C A47U G50A C54U G141U | ≤ -4.2
U13A A41C A91U C96U | ≤ -4.2
U13C A26C A52C | -3.55
A12U A24G C57A A115G A142G | ≤ -4.2
A12U A41C G46C G86U G128A C129G | ≤ -4.2
A12U A21U A40G G58U G81A G94A C123G G140C | ≤ -4.2
U13C G58U U61A A73U U90G C95G | ≤ -4.2
U13C C51G C54G C75U G83U | ≤ -4.2
U13A U55A A89C G128U | -3.92
A12G U13C A21U A47G G80U A119C U127A | ≤ -4.2
U13A C76A U148G | ≤ -4.2
A12U C105G | -2.43
U13A A24G U53C U55A U56A A91U U111C C123U C131A C132U | ≤ -4.2
A12G U45A A52U U55A C79G G81A A98G | ≤ -4.2
A12U U61G C93U G94A U144G | -2.83
A12G A49C G74A C96U U102G G112U C125U | ≤ -4.2
U13C A24C U45G G84U U135C | ≤ -4.2
A12U C54A A60C C63G G74U | ≤ -4.2
U13A C14G A19U U53A U55A G86C U135A | ≤ -4.2
A12U C18G G42A U61G A73G G94C A137G | ≤ -4.2
A12U A24C G74A C75A U101G A137U | ≤ -4.2
U13A G58A U77C A107G A113U U127A A138C | ≤ -4.2
A12U G58C C87G U102G G141U | ≤ -4.2

Variant | polymerase ribozyme fitness (log ratio)
A12U C14G A20G G46A G65C C85A | ≤ -4.2
A12G C95U | 0.599
A12G G58U C116U A150G | -1.58
A12U A20C A23U A26U A40U C93A U127A | ≤ -4.2
A12U C95A C96A C123U G140U | ≤ -4.2
U13A U33A A52U A89G | ≤ -4.2
A12G C36G G46A G58A C95G U148G | ≤ -4.2
A12G U45A G48U A52U C125G | ≤ -4.2
A12G C27G U33G C38U G42C G48A G50U G94C A119U | ≤ -4.2
U13A A17U C76A G84A U111A A119U A138G | ≤ -4.2
A12U U56G A91G | -2.61
U13C A39G U101G A137C | ≤ -4.2
U13C C27U A37G C54U A106G U109G C123G G124A | -3.57
A12G A30G G50U C87U C125U U145C C149A | ≤ -4.2
A12G C14G A22C A37C G88C G143C | ≤ -4.2
A12U C36A U56A G59C C96A G112C C114U C116G C149U A150G | ≤ -4.2
A12G C43A C87U A91U G126A G143C | ≤ -4.2
A12U A22U U33G A41C G48C C85A G140A | ≤ -4.2
U13C A20C A22C C36U A113C C118U | ≤ -4.2
A12U A16C A41C A47G A91C G92C | ≤ -4.2
A12U | -0.161
A12U G94A | -1.47
A12U A17C U55A U56C G86A A115G | ≤ -4.2
A12U A26U A30U A39U A49C U61A C87A | ≤ -4.2

Variant | polymerase ribozyme fitness (log ratio)
A12U C36A C72G C76A C93A G94U C114A C118A | ≤ -4.2
A12U C85U | -0.742
A12U C85G | -1.91
U13A A17C A49U G50A G74A U130G | ≤ -4.2
U13A A20G G74A C76A G84A A115G C125A | ≤ -4.2
U13C U15A A19U C63U G74U U78C C93G C96A U101G G152C | ≤ -4.2
A12U C14A A24U U56A C85U C99U G141A | ≤ -4.2
A12U C18U A19G U56G A60U C76G C108U C114G | ≤ -4.2
A12U G34C C35G U77C G126U U144G | ≤ -4.2
A12G A39U C43G U61C C96U A119G G128U | ≤ -4.2
A12G C14U | -0.925
A12U A30C A107C A138G U148G | ≤ -4.2
A12U C36A A66U C95G A120U | ≤ -4.2
A12G A73U C76G | ≤ -4.2
U13C G42A A73U U78A C96G U111A A120U A138G | ≤ -4.2
A12U A41C G92A A142C | ≤ -4.2
A12G G68C | ≤ -4.2
A12G A49C G58A G70C U77C G88A C116G | ≤ -4.2
A12G G81A G92A C114A G152U | ≤ -4.2
U13A G84A G136U | -2.59
A12G A37U C79U A91U C99A A142C | ≤ -4.2
A12G U77C | -3.98
A12U U90G G100A A107U | ≤ -4.2
U13A A52G G68C G80A U82G C95G C105U C114A U145G | ≤ -4.2

Variant | polymerase ribozyme fitness (log ratio)
U13C C85G G94A C95G U135A | ≤ -4.2
U13C A20U A30U C36U U56A A60U G84U C85G A119U | ≤ -4.2
U13A A29U A39U U53G C85A G126C C132G U135C | ≤ -4.2
U13C A16G C18A C35A C87U | ≤ -4.2
A12U C38G G50A A66C | ≤ -4.2
U13A C51U C54A G86U C116U A120G | ≤ -4.2
U13C A17C G67C U77G A89C A120C | ≤ -4.2
A12U A16U A40U U44A G46A A91C A97U A107U A115U U134A U146G | ≤ -4.2
A12U A28U U82G C118U | ≤ -4.2
A12U G25U A37G A47C U77A C95G G141A | ≤ -4.2
A12U C76A C93U C108U A115U | ≤ -4.2
A12U G59C U61G G88C C103G G117U U135G | ≤ -4.2
A12G C93U | -1.21
U13A C76G C95U A97U U145G A150C | ≤ -4.2
U13C A66G C85U C95A U101G C123A U127A U144A | ≤ -4.2
A12G A30U C51G C57U C95G U101G G136A | ≤ -4.2
A12U A19G U82C G83A A119U | -4.07
A12U A22U A47G G48A A91U A97C A110C U144A C149G | ≤ -4.2
A12U U77G G83U G88U A106C | ≤ -4.2
A12U A21U C38A A106U C116A A119G | -3.18
A12U A24G C36A A64U G83A | ≤ -4.2
U13A A17U C18U A24G A28U U33G C85U U127A | ≤ -4.2
U13A A20U U77A | ≤ -4.2
A12G U56A C76A G143U | -3.46

Variant | polymerase ribozyme fitness (log ratio)
A12U G59U C69A C96U | -2.45
U13A A16U G59A A91G C125G U130A | ≤ -4.2
U13C A16G A19C A28U C38U U55G A73C U77C C95G | ≤ -4.2
U13A G42A C57G G62A G67U | ≤ -4.2
A12U G86A U101G | -0.714
A12G C54G G88C C105U | ≤ -4.2
U13A U61A C85U | -2.01
A12U C14U G50C A60G G74U C85U | ≤ -4.2
U13A A21C G92A G100C | ≤ -4.2
A12U U53A C116G A119U G124A A142C | ≤ -4.2
A12G C79G G92A C105A A150U | ≤ -4.2
U13C U31A C69A C116G G117A C132U | ≤ -4.2
A12U A39C G70C U78C G81U G83A A106G | ≤ -4.2
A12U A19C U55A G83A G86A A89C C96A A113C U127C | ≤ -4.2
A12U C93U G100U U111A | ≤ -4.2
U13A C38U | -0.321
U13C A23U G86U U145G | ≤ -4.2
U13C G59C U61G C79U G84A C132A | -4.17
A12U C85U A106C A107U G124A U134A G140A | ≤ -4.2
A12U A19G C43A C85U C96U A115C | ≤ -4.2
A12U A52C G84A A98G | -2.65
A12G C69G A89U C96G U104A | -2.98
A12G G59A G94C | -0.564
